This assay concerns the target recombinant SARS-CoV-2 Main protease (Mpro) (Severe acute respiratory syndrome coronavirus 2, UniProt P0DTD1). Briefly: Cov Mpro Biochemical IC50 Assay. The conditions noted are these: 7.5 nM Mpro, fluorogenic peptide substrate 40 μM, 20 min pre-incubation.

Drawing on patent US20250276979A1, “SARS-COV2 MAIN PROTEASE INHIBITORS” (Gilead Sciences, Inc., priority 2024, published 2025), this text covers IC50 for 23 compounds.

Where only a bound is given, the exact number is not on record here.

`COc1cc(-c2cc3c(s2)c(=O)n([C@H]2CCCNC(=O)C2)c(=O)n3CC#N)c(Cl)cc1F` [Example 35, (S)-2-(6-(2-chloro-4-fluoro-5-methoxyphenyl)-2,4-dioxo-3-(2-oxoazepan-4-yl)-3,4-dihydrothieno[3,2-d]pyrimidin-1(2H)-yl)acetonitrile]: the IC50 came to 31.4 nM. The same measure for `COc1cc(-c2cc3c(s2)c(=O)n([C@@H]2CCCNC(=O)C2)c(=O)n3CC2(C#N)CC2)c(Cl)cc1F` [Example 36, (R)-1-((6-(2-chloro-4-fluoro-5-methoxyphenyl)-2,4-dioxo-3-(2-oxoazepan-4-yl)-3,4-dihydrothieno[3,2-d]pyrimidin-1(2H)-yl)methyl)cyclopropane-1-carbonitrile]: below 3.75 nM; for `COc1cc(-c2cc3c(s2)c(=O)n([C@@H]2CCCNC(=O)C2)c(=O)n3CCNC(C)=O)c(Cl)cc1F` [Example 37, (R)—N-(2-(6-(2-chloro-4-fluoro-5-methoxyphenyl)-2,4-dioxo-3-(2-oxoazepan-4-yl)-3,4-dihydrothieno[3,2-d]pyrimidin-1(2H)-yl)ethyl)acetamide]: 27.8 nM. In the case of `COc1cc(-c2cc3c(s2)c(=O)n([C@@H]2CCCNC(=O)C2)c(=O)n3CCOC(F)(F)F)c(Cl)cc1F` [Example 38, (R)-6-(2-chloro-4-fluoro-5-methoxyphenyl)-3-(2-oxoazepan-4-yl)-1-(2-(trifluoromethoxy)ethyl)thieno[3,2-d]pyrimidine-2,4(1H,3H)-dione], the IC50 is 186 nM. Under `COc1cc(-c2cc3c(s2)c(=O)n([C@@H]2CCCNC(=O)C2)c(=O)n3CCN2CCCC2=O)c(Cl)cc1F` [Example 39, (R)-6-(2-chloro-4-fluoro-5-methoxyphenyl)-3-(2-oxoazepan-4-yl)-1-(2-(2-oxopyrrolidin-1-yl)ethyl)thieno[3,2-d]pyrimidine-2,4(1H,3H)-dione] stands 53.4 nM; under `COc1cc(-c2cc3c(s2)c(=O)n([C@@H]2CCCNC(=O)C2)c(=O)n3CCC(=O)N(C)C)c(Cl)cc1F` [Example 40, (R)-3-(6-(2-chloro-4-fluoro-5-methoxyphenyl)-2,4-dioxo-3-(2-oxoazepan-4-yl)-3,4-dihydrothieno[3,2-d]pyrimidin-1(2H)-yl)-N,N-dimethylpropanamide], 47.4 nM. Consider `COc1cc(-c2cc3c(s2)c(=O)n([C@@H]2CCCNC(=O)C2)c(=O)n3Cc2ncn(C)n2)c(Cl)cc1F` [Example 41, (R)-6-(2-chloro-4-fluoro-5-methoxyphenyl)-1-((1-methyl-11H-1,2,4-triazol-3-yl)methyl)-3-(2-oxoazepan-4-yl)thieno[3,2-d]pyrimidine-2,4(1H,3H)-dione], for which the IC50 is 80.5 nM. Under `CNC(=O)CCn1c(=O)n([C@@H]2CCCNC(=O)C2)c(=O)c2sc(-c3cc(OC)c(F)cc3Cl)cc21` [Example 42, (R)-3-(6-(2-chloro-4-fluoro-5-methoxyphenyl)-2,4-dioxo-3-(2-oxoazepan-4-yl)-3,4-dihydrothieno[3,2-d]pyrimidin-1(2H)-yl)-N-methylpropanamide] stands 34.2 nM; under `COc1cc(-c2cc3c(s2)c(=O)n([C@@H]2CCCNC(=O)C2)c(=O)n3CC(F)F)c(Cl)cc1F` [Example 43, (R)-6-(2-chloro-4-fluoro-5-methoxyphenyl)-1-(2,2-difluoroethyl)-3-(2-oxoazepan-4-yl)thieno[3,2-d]pyrimidine-2,4(1H,3H)-dione], 12.7 nM; under `COc1cnc(Cl)c(-c2cc3[nH]c(=O)n([C@@H]4CCCNC(=O)C4)c(=O)c3s2)c1` [Example 44, (R)-6-(2-chloro-5-methoxypyridin-3-yl)-3-(2-oxoazepan-4-yl)thieno[3,2-d]pyrimidine-2,4(1H,3H)-dione], 9 nM. Under `COc1cc(-c2cc3[nH]c(=O)n([C@@H]4CCCNC(=O)C4)c(=O)c3s2)c(C)cc1F` [Example 45, (R)-6-(4-fluoro-5-methoxy-2-methylphenyl)-3-(2-oxoazepan-4-yl)thieno[3,2-d]pyrimidine-2,4(1H,3H)-dione] stands 16.1 nM; under `COc1cc(-c2cc3[nH]c(=O)n([C@@H]4CCCNC(=O)C4)c(=O)c3s2)c(C#N)cc1F` [Example 46, (R)-2-(2,4-dioxo-3-(2-oxoazepan-4-yl)-1,2,3,4-tetrahydrothieno[3,2-d]pyrimidin-6-yl)-5-fluoro-4-methoxybenzonitrile], 6.38 nM; under `COc1cc(-c2cc3[nH]c(=O)n([C@@H]4CCCNC(=O)C4)c(=O)c3s2)c(Cl)cc1Cl` [Example 47, (R)-6-(2,4-dichloro-5-methoxyphenyl)-3-(2-oxoazepan-4-yl)thieno[3,2-d]pyrimidine-2,4(1H,3H)-dione], below 3.75 nM.

With `COc1cc(-c2cc3c(s2)c(=O)n([C@@H]2CCCNC(=O)C2)c(=O)n3CCC#N)c(Cl)cc1F` [Example 48, (R)-3-(6-(2-chloro-4-fluoro-5-methoxyphenyl)-2,4-dioxo-3-(2-oxoazepan-4-yl)-3,4-dihydrothieno[3,2-d]pyrimidin-1(2H)-yl)propanenitrile], the IC50 amounted to 4.02 nM. In the case of `COc1cc(-c2cc3c(s2)c(=O)n([C@@H]2CCCNC(=O)C2)c(=O)n3CCC#N)c(C#N)cc1F` [Example 49, (R)-2-(1-(2-cyanoethyl)-2,4-dioxo-3-(2-oxoazepan-4-yl)-1,2,3,4-tetrahydrothieno[3,2-d]pyrimidin-6-yl)-5-fluoro-4-methoxybenzonitrile], the IC50 is above 1000 nM.

Take `COc1cnc(Cl)c(-c2cc3c(s2)c(=O)n([C@@H]2CCCNC(=O)C2)c(=O)n3CCC#N)c1` [Example 50, (R)-3-(6-(2-chloro-5-methoxypyridin-3-yl)-2,4-dioxo-3-(2-oxoazepan-4-yl)-3,4-dihydrothieno[3,2-d]pyrimidin-1(2H)-yl)propanenitrile]: the IC50 came out at 247 nM. For `N#CCCn1c(=O)n([C@@H]2CCCNC(=O)C2)c(=O)c2sc(-c3ccccc3Cl)cc21` [Example 51, (R)-3-(6-(2-chlorophenyl)-2,4-dioxo-3-(2-oxoazepan-4-yl)-3,4-dihydrothieno[3,2-d]pyrimidin-1(2H)-yl)propanenitrile], the IC50 was 26.3 nM. For `N#CCCn1c(=O)n([C@@H]2CCCNC(=O)C2)c(=O)c2sc(-c3ccccc3C#N)cc21` [Example 52, (R)-2-(1-(2-cyanoethyl)-2,4-dioxo-3-(2-oxoazepan-4-yl)-1,2,3,4-tetrahydrothieno[3,2-d]pyrimidin-6-yl)benzonitrile], the IC50 turned out to be 66.7 nM. Under `COc1cc(-c2cc3[nH]c(=O)n(C4CC(=O)NCC(C)(C)C4)c(=O)c3s2)c(Cl)cc1F` (centres unmarked) [Example 55, 6-(2-chloro-4-fluoro-5-methoxyphenyl)-3-(6,6-dimethyl-2-oxoazepan-4-yl)thieno[3,2-d]pyrimidine-2,4(1H,3H)-dione] stands 7.37 nM. The same measure for `COc1cc(-c2cc3[nH]c(=O)n([C@@H]4CCCNC(=O)C4)c(=O)c3cc2OC)c(C#N)cc1F` [Example 56, (R)-5-fluoro-4-methoxy-2-(6-methoxy-2,4-dioxo-3-(2-oxoazepan-4-yl)-1,2,3,4-tetrahydroquinazolin-7-yl)benzonitrile]: 33.7 nM; for `COc1cc(-c2cc3[nH]c(=O)n([C@H]4CNC(=O)C4)c(=O)c3o2)c(Cl)cc1F` [Example 57, 6-(2-chloro-4-fluoro-5-methoxy-phenyl)-3-[(3R)-5-oxopyrrolidin-3-yl]-1H-furo[3,2-d]pyrimidine-2,4-dione]: above 1000 nM; for `COc1cc(-c2cc3[nH]c(=O)n(C4CCCCNC(=O)C4)c(=O)c3s2)c(Cl)cc1F` (centres unmarked) [Example 58, 6-(2-chloro-4-fluoro-5-methoxyphenyl)-3-(2-oxoazocan-4-yl)thieno[3,2-d]pyrimidine-2,4(1H,3H)-dione]: 69 nM. The same measure for `COc1cc(-c2cc3[nH]c(=O)n([C@@H]4CCCNC(=O)C4)c(=O)c3o2)c(Cl)cc1F` [Example 59, (R)-6-(2-chloro-4-fluoro-5-methoxyphenyl)-3-(2-oxoazepan-4-yl)furo[3,2-d]pyrimidine-2,4(1H,3H)-dione]: 44.6 nM.
